Laboratory results: PubChem BioAssay AID1346428 (National Center for Advancing Translational Sciences (NCATS), 2018)
Screen size: about 48,000 compounds; about 1,200 (2.5%) were called active. Roughly 2% stayed inconclusive and do not appear here.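 How the source made its calls: active means activation of at least 60% and not above a set upper limit (about 1 call in 100 departs from these limits); inconclusive means activation of 40% to 60%, or above that upper limit; inactive means activation under 40%.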 Some of the results follow.

target: Probable G-protein coupled receptor 32 (Homo sapiens) (UniProt O75388); assay: qHTS for Agonists of Human Resolvin D1 Receptor DRV1; conditions: CHO-K1 GPR32 beta-arrestin PathHunter luminescence, 90 min; at 76.9 µM; stronger effect = higher value; zero percent set by DMSO-only wells; further: 0% is about no effect
Chain of UniProt O75388 (O75388 whole entry, looked up): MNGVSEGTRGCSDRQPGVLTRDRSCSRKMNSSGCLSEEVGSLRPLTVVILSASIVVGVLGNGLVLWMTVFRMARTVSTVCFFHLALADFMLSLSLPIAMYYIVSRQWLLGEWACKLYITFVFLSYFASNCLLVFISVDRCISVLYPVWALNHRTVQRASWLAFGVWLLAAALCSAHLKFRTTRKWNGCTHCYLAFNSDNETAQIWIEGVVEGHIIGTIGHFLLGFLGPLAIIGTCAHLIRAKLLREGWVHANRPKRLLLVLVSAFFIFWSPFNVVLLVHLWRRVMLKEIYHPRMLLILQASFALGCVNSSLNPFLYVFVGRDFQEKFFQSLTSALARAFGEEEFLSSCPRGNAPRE
Method in brief: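 Step 1: seed CHO-K1 GPR32 beta-arrestin cells, 2,500/well, overnight at 37 °C. Step 2: add compounds, 90 min at 37 °C. Step 3: detection reagent, 1 h ambient, then luminescence.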

activation, inactive:
Cc1ccc2onc(CNC(=O)NCc3cccc(Cl)c3)c2c1 -4.05%
CCOc1ccc(OCC)c(NC(=O)CC(C)n2nc(C)cc2C)c1 (stereo not drawn) -16.7%
CCOc1ccc(-c2cc(C(=O)Nc3ccc(NC(C)=O)cc3)no2)cc1 -3.12%
O=C(O)CCCNc1cc(N2CCN(C3CCCCC3)CC2)c2noc3c2c1C(=O)c1ccccc1-3 9.13%
Cc1cc2oc(C(=O)Nc3ccc(S(=O)(=O)Nc4ncccn4)cc3)cc(=O)c2cc1C 9.87%
CCCOc1ccc(CNC(=O)c2ccc(-n3c(C)cc4c3CCC(C)C4)cc2)cc1 (stereo not drawn) -17.8%
CCOc1ccc(C2NC(=O)c3c(COC)cc(C)nc3N2Cc2ccccc2)cc1OC (stereo not drawn) -3.85%
Cc1ccc(Cn2cc(S(=O)(=O)c3cccc(Cl)c3)c(=O)c3cc(F)c(N4CCOCC4)cc32)cc1 -6.01%
CCN(C(=O)CSc1nc2ccccc2[nH]1)c1ccccc1 -23.2%
Cc1ccc(NC(=O)Cn2ccn(-c3ccccc3)c(=O)c2=O)cc1 -1.81%
COc1cc(OC)c(NC(=O)CCc2c(C)nc3cc(-c4ccccc4OC)nn3c2C)cc1Cl -12.8%
CC(C)OC(=O)c1c(NC(=O)C2c3ccccc3Oc3ccccc32)sc2c1CCCC2 2.7%
Cc1ccc(C)c(N2CCN(C(=O)c3ccc4c(c3)N(Cc3ccc(F)cc3)C(=O)c3ccccc3S4=O)CC2)c1 (stereo not drawn) -8.51%
CC1CCC(Nc2nc3c(-c4cccc(C(F)(F)F)c4)nnn3c3ccccc23)CC1 (stereo not drawn) 25.9%
Cc1ccc(NC(=O)C2CCCN(S(=O)(=O)c3cn(C(C)C)cn3)C2)c(C)c1 (stereo not drawn) 6.23%
COc1ccccc1-c1noc(CCC(=O)Nc2ccc(C)cc2C)n1 -4.99%
CC(=O)c1ccc(Nc2cc(C)nc3nc(Cc4ccc(Cl)cc4)nn23)cc1 10.5%
CC(C)c1nn2c(=O)cc(COC(=O)c3ccccc3NC(=O)C3CCCCC3)nc2s1 -8.45%
O=C(Nc1cc2c(cc1C(=O)c1ccccc1Cl)OCCO2)c1ccccc1 -12.1%
CCc1ccc2oc(C(=O)Nc3cc(C)ccc3C)cc(=O)c2c1 29%
CN(C)c1ccc(CNC(=O)c2ccccc2NC(=O)c2nsc3ccccc23)cc1 -11.9%
CC1Cc2ccccc2N1C(=O)CSc1nnc(-c2ccccc2Cl)o1 (stereo not drawn) -0.864%
Cc1c(Cl)cccc1NC(=O)c1ncoc1-c1ccco1 -7.08%
